Laboratory results from PMC4336329 (PLoS ONE, 2015).
Hit rate of the full screen: of about 310,000 compounds, about 14,000 (4.5%) showed an effect of 50% or more. The effect is printed as a negative number. Some of the results follow.

These molecules were tested against human ether-à-go-go-related gene (hERG) potassium channel (human, UniProt Q12809) (assay: primary screen, population patch clamp on CHO cells stably expressing hERG).
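Note: peak tail current of the secondary pulse compared with the same well before compound.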

Chain of human ether-à-go-go-related gene (hERG) potassium channel (Q12809 whole entry, looked up): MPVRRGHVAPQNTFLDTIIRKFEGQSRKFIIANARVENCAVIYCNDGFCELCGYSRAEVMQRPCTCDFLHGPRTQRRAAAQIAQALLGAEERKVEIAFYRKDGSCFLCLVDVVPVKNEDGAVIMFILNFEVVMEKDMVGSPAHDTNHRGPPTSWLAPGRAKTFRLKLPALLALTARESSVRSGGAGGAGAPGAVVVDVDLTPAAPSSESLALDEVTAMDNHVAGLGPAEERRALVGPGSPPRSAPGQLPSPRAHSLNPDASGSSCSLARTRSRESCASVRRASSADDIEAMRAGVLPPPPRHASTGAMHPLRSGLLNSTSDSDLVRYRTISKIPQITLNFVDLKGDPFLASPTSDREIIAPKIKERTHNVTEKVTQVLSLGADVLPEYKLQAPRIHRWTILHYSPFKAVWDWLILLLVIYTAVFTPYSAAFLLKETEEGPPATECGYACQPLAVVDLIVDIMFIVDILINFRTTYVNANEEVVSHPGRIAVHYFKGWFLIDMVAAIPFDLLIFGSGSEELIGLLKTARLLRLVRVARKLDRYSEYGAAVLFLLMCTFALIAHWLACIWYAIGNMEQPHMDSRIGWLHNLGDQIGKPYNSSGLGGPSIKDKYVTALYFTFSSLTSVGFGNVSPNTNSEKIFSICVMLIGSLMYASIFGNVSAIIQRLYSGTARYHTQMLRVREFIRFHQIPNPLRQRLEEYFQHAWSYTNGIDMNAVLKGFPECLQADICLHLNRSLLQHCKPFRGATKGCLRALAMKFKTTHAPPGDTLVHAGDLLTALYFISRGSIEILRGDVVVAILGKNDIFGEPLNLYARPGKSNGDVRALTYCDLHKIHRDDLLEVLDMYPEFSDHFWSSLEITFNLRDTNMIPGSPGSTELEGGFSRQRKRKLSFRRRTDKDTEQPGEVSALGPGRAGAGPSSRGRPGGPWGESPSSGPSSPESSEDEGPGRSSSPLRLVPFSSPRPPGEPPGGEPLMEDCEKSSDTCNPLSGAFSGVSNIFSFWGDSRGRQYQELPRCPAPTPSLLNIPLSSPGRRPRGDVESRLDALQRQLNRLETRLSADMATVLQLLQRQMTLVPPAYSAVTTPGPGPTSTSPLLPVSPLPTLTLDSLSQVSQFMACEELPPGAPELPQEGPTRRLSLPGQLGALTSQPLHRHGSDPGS

| SMILES | hERG current change (%, negative = inhibition) at 10uM [%] |
| --- | --- |
| Cc1cc(C)n(-c2nc3c(c(=O)[nH]c(=O)n3C)n2C(C)C)n1 | 21.4 |
| O=C(CCCOc1ccc(Cl)cc1Cl)N/N=C/c1ccco1 | -4.05 |
| O=C([O-])c1ccc(-n2nc(C(F)(F)F)cc2-c2cccs2)cc1.[Na+] | 20.6 |
| COc1ccc(NC2CCCN(Cc3cccc4cnccc34)C2)cc1OC (stereo not shown) | -11.2 |
| COc1cc(OCC(N)=O)cc(OC)c1OC | -20 |
| Cc1ccc(NC(=O)c2cncc(Br)c2)c([N+](=O)[O-])c1 | -7.77 |
| O=C(CN(c1ccc(F)cc1)S(=O)(=O)c1ccc2c(c1)OCCO2)NCc1ccccc1 | -2.19 |
| COc1cccc(Cn2cccc(NC(=O)Nc3ccc(C#N)cc3)c2=O)c1 | 15.9 |
| O=C(Cn1c(=O)c(=O)n(Cc2ccccc2)c2ccc(Cl)cc21)Nc1ccc(F)cc1F | 21.3 |
| CCCC(=O)NC(C)c1nc2ccccc2n1C (stereo not shown) | 6.47 |
| CCOC(=O)CN(C(=O)CSc1nnc(Cc2ccccc2)n1-c1ccc(C)cc1)c1ccccc1 | -59.2 |
| CCCCNC(=O)C1CCN(c2nc(C)cc(C)n2)CC1 | 17 |
| c1csc(-n2nc3ccccc3n2)c1 | -13.4 |
| O=c1c2ccccc2nc(CSc2ncnc3nc[nH]c23)n1-c1ccccc1Cl | 10 |
| COc1cc(/C=C2\SC(=S)N(CC(=O)O)C2=O)ccc1OC(=O)c1ccco1 | 12.1 |
| c1ccc2c(-n3cnnn3)cccc2c1 | -1.76 |
| CCCCCOC(=O)Cc1c(O)c2ccccc2[nH]c1=O | 12.8 |
| Cc1c(C(=O)NCCNc2ncc(C(F)(F)F)cc2Cl)cccc1[N+](=O)[O-] | 5.52 |
| CCOC(=O)C(N)CSC1CC(=O)N(c2ccc(C(=O)OC)cc2)C1=O (stereo not shown) | -5.97 |
| CC1=NN(C(=O)c2cc(C)nn2C)C(O)(C(F)(F)F)C1 (stereo not shown) | 30.4 |
| COC(=O)c1sc(C(C)(C)C)cc1CS(=O)(=O)c1ccccn1 | 6.34 |
| COc1ccc(-c2nnc(SCc3ncc(-c4ccccc4)o3)o2)cc1 | 9.01 |
| Cc1ccccc1C(=O)NNC(=O)/C=C\C(=O)O | -11.1 |
| O=C(Nc1ccccc1F)c1coc(=O)c(Br)c1 | 5.87 |
| Cc1ccc(-n2sc3ccccc3c2=O)cc1 | 29.4 |
